B1: AmNB1613.25 (AmNB1613^mutant-FC) (Fc fusion)
heavy: QVQLQESGGGLVQPGGSLRLSCAASAYTISRNSMGWFRQAPGKGLEGVAAIESDGSTSYSDSVKGRFTISLDNSKNTLYLEMNSLRAEDTAVYYCAAPKVGLGPRTALGHLAFMTLQDLNDWGQGTLVTVSS[sequence of human IgG1 Fc with changes not given]
B2: AmNB1613.28 (AmNB1613^mutant-FC) (Fc fusion)
heavy: QVQLQESGGGLVQPGGSLRLSCAASAYTISRNSMGWFRQAPGKGLEGVAAIESDGSTSYSDSVKGRFTISLDNSKNTLYLEMNSLRAEDTAVYYCAAPKVGLGPRTALGHLAFMILQDLNYWGQGTLVTVSS[sequence of human IgG1 Fc with changes not given]
B3: AmNB1613.12 (AmNB1613^mutant-FC) (Fc fusion)
heavy: QVQLQESGGGLVQPGGSLRLSCAASDNPMSRNSAGWFRQAPGKGLEGVAAIESDGSTSYSDSVKGRFTISLDNSKNTLYLEMNSLRAEDTAVYYCAAPKVGLGPRTALGHLAFMTLPALNYWGQGTLVTVSS[sequence of human IgG1 Fc with changes not given]
B4: HzNB1613-FC (Fc fusion)
heavy: QVQLQESGGGLVQPGGSLRLSCAASAYTISRNSMGWFRQAPGKGLEGVAAIESDGSTSYSDSVKGRFTISLDNSKNTLYLEMNSLRAEDTAVYYCAAPKVGLGPRTALGHLAFMTLPALNYWGQGTLVTVSS[sequence of human IgG1 Fc with changes not given]
notes: also called AmNB1613.0; parent antibody
B5: AmNB1613.36 (AmNB1613^mutant-FC) (Fc fusion)
heavy: QVQLQESGGGLVQPGGSLRLSCAASAYTISRNSMGWFRQAPGKGLEGVAAIESDGSTSYSDSVKGRFTISLDNSKNTLYLEMNSLRAEDTAVYYCAAPKVGLGPRTALGHLAFMILADLNDWGQGTLVTVSS[sequence of human IgG1 Fc with changes not given]
B6: AmNB1613.1 (AmNB1613^mutant-FC) (Fc fusion)
heavy: QVQLQESGGGLVQPGGSLRLSCAASADPMSRNSMGWFRQAPGKGLEGVAAIESDGSTSYSDSVKGRFTISLDNSKNTLYLEMNSLRAEDTAVYYCAAPKVGLGPRTALGHLAFMTLPALNYWGQGTLVTVSS[sequence of human IgG1 Fc with changes not given]

For the first experiment, the target named is T1, human PD-L1 on the CHO cell surface (human, UniProt Q9NZQ7).
T1 construct: whole, on cells; also called CHO-PD-L1 cells; PD-L1+ CHOK1 cells
As to the kind of experiment: flow cytometry on CHO cells expressing human PD-L1 (CHOS-huPD-L1), sample after 30 days at 40 C. A general note: A flow cytometer gives signals particle by particle.
By EC50 (read off the curve) is commonly meant the concentration giving half of the maximal effect. High values mean a need for much substance, low ones an effect from little substance. As for B1, the “EC50 (read off the curve)” value was ~3 nM.

The target in another experiment is T1, human PD-L1 on the CHO cell surface. The description is as above. This is another data set of the same source.
T1 sequence (Q9NZQ7 19-290): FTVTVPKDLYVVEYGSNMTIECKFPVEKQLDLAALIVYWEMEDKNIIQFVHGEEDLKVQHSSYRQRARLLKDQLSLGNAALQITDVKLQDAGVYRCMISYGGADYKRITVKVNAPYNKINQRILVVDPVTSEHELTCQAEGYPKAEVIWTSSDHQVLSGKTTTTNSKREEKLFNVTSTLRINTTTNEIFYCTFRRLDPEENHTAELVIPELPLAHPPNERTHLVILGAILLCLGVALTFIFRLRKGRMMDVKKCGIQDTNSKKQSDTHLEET
In the case of B2, the “EC50 (read off the curve)” value is ~4 nM.

Another experiment has the same target. As to the kind of experiment: flow cytometry on CHO cells expressing human PD-L1 (CHOS-huPD-L1), sample before storage at 40 C.
With B3, the “EC50 (read off the curve)” value is ~4 nM.

The next experiment deals with T2, human PD-L1 (Acro Biosystems, Catalog No. PD1-H5229) (human, UniProt Q9NZQ7 fragment).
T2 construct: Soluble bought protein used in BLI and SPR; also called antigen human PD-L1
Briefly: BLI (Octet Red96), supernatant sample captured on AHQ sensor, 100 nM human PD-L1 in solution, 1:1 model. Here is the method:
(§1) Kinetic analysis was performed on the assay results using a 1:1 binding model.
For orientation: BLI is a label-free optical method that tracks binding on a fibre tip over time.
As usually defined, the Kd is the concentration at which binding is half-saturated. A lower Kd goes with higher affinity. Molecule B4 came in with a Kd of 16.4 nM.

On to B5, for which binding was put at a Kd of 1.76 nM.

Molecule B6 returned a Kd of 2.72 nM.

B1 displayed a Kd of 2.15 nM.

B2 showed a Kd of 2.67 nM.

B3 gave a Kd of 2.26 nM. The Kd values of the last two molecules are within 1.5-fold of each other.

Another experiment has as its target T1, human PD-L1 on the CHO cell surface. As to the kind of experiment: flow cytometry on CHO cells expressing human PD-L1 (CHOS-huPD-L1), sample before storage at 40 C. The source holds these as a separate data set.
In the case of B2, the “EC50 (read off the curve)” value is ~4 nM.

The target is the same in the next experiment. The description is as above. This is another data set of the same source.
Consider B1, for which the “EC50 (read off the curve)” value was ~3 nM.

The target of a further experiment is T2, human PD-L1 (Acro Biosystems, Catalog …). Briefly: BLI (Octet Red96), purified sample captured on AHQ sensor, human PD-L1 in solution, 1:1 model. Here is the method: as §1
A word on the koff: it is the rate constant with which the complex falls apart. Low values mean a long-lived complex, high ones a short-lived complex. Broadly, the kon is the second-order rate constant of association. A lower kon goes with slow association. Consider B4, for which the Kd amounted to 43 nM, the koff worked out at 0.00346 s⁻¹ and the kon was 80500 M⁻¹ s⁻¹.

B5 yielded a Kd of 4.21 nM, a koff of 0.000702 s⁻¹ and a kon of 167000 M⁻¹ s⁻¹.

Turning to B6, binding was characterised by a dissociation constant (Kd) of 8.14 nM, the koff amounted to 0.00104 s⁻¹ and the kon was 128000 M⁻¹ s⁻¹.

Molecule B1 had a Kd of 6.87 nM, a koff of 0.000887 s⁻¹ and a kon of 129000 M⁻¹ s⁻¹.

On to B2, for which the Kd came to 6.87 nM, the koff came out at 0.000773 s⁻¹ and the kon turned out to be 113000 M⁻¹ s⁻¹.

On to B3, for which binding was characterised by a dissociation constant (Kd) of 6.72 nM, the koff is 0.000932 s⁻¹ and the kon came to 139000 M⁻¹ s⁻¹.

The target is the same in the next experiment. As to the kind of experiment: SPR, antibody captured by anti-human Fc antibody on CM5 chip, human PD-L1 0.15-20 nM as analyte, 1:1 model. A general note: SPR reads the build-up and loss of mass on a sensor chip optically.
In the case of B4, binding was put at a Kd of 3.92 nM, the koff is 0.00581 s⁻¹ and the kon turned out to be 1.48e+06 M⁻¹ s⁻¹.

B6 showed a Kd of 0.301 nM, a koff of 0.000522 s⁻¹ and a kon of 1.73e+06 M⁻¹ s⁻¹.

As for B1, the Kd worked out at 0.204 nM, the koff was determined as 0.000489 s⁻¹ and the kon came out at 2.4e+06 M⁻¹ s⁻¹.

For B2, the affinity, expressed as Kd, was 0.176 nM; the koff is 0.000595 s⁻¹; the kon turned out to be 3.37e+06 M⁻¹ s⁻¹.

B3 came in with a Kd of 0.409 nM, a koff of 0.000531 s⁻¹ and a kon of 1.3e+06 M⁻¹ s⁻¹.

Another experiment addresses T1, human PD-L1 on the CHO cell surface. As to the kind of experiment: flow cytometry on CHO cells expressing human PD-L1 (CHOS-huPD-L1), sample before storage at 40 C. The source holds these as a separate data set.
As for B6, the “EC50 (read off the curve)” value was ~5 nM.

Another experiment shares this target. As to the kind of experiment: flow cytometry on CHO cells expressing human PD-L1 (CHOS-huPD-L1), sample after 30 days at 40 C. The source holds these as a separate data set.
On to B3, for which the “EC50 (read off the curve)” value is ~4 nM.

Another experiment shares this target. Described as above. The source holds these as a separate data set.
For B6, the half-maximal effective concentration (EC50 (read off the curve)) was ~5 nM.

These data come from patent US20220127364A1 (Innovent, published 2022).
